From the supplement of paper PMC12217912
This is one part of the list. The full chains were built here from the parent and the listed change. Inactive controls read about 0.05.

B1: TEV protease; numbered along this chain (parent)
chain: MGESLFKGPRDYNPISSSICHLTNESDGHTTSLYGIGFGPFIITNKHLFRRNNGTLVVQSLHGVFKVKDTTTLQQHLVDGRDMIIIRMPKDFPPFPQKLKFREPQREERICLVTTNFQTKSMSSMVSDTSCTFPSGDGIFWKHWIQTKDGQCGSPLVSTRDGFIVGIHSASNFTNTNNYFTSVPKNFMELLTNQEAQQWVSGWRLNADSVLWGGHKVFMVKPEEPFQPVKEATQL

Variants of: B1
Assay: raw area under fraction-flipped curve 0-4 h after induction (AUC4h, not background-subtracted), DNA-recorder readout of cleavage of the substrate (dimensionless); higher = more cleavage of the substrate by the protease variant
Settings: temperature: 34 °C; time window: 0-4 h after rhamnose induction
Protocol: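 In vivo DNA recorder in E. coli TOP10(DE3) ΔrhaA at 34 °C. Each TEVp single-site mutant (parent TEVp 0) is paired with a single-site variant of the 7-mer TEVs (canonical ENLYFQ|S). The substrate sits between flexible linkers in a Bxb1-sfGFP-TEVs-SsrA fusion, so cleavage stabilises Bxb1 and speeds flipping of a recombination array, read by NGS. The value is the raw area under the fraction-flipped curve over 0-4 h after rhamnose induction (AUC4h), with ≥20 reads per time point. It is not background-subtracted; inactive controls average about 0.047.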
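Further: Bxb1 expression induced with 0.2% (w/v) L-rhamnose at OD600 near 0.5, cultures sampled hourly, flipped fraction per protease–substrate barcode pair counted by paired-end Illumina sequencing.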

Variant	area with substrate EALYFQS	area with substrate ECLYFQS	area with substrate EELYFQS	area with substrate EFLYFQS	area with substrate EGLYFQS	area with substrate EILYFQS	area with substrate EKLYFQS	area with substrate ELLYFQS	area with substrate EMLYFQS	area with substrate EPLYFQS	area with substrate EQLYFQS	area with substrate ERLYFQS	area with substrate ESLYFQS	area with substrate ETLYFQS	area with substrate EVLYFQS	area with substrate EWLYFQS	area with substrate EDLYFQS	area with substrate EHLYFQS	area with substrate EYLYFQS
F95S	0.108	0.108	0.0945	0.0814	0.0577	0.0853	0.0901	0.0883	0.0943	0.005	0.0806	0.0808	0.0736	0.102	0.0951	0.0729	–	–	–
K98Q	0.124	0.112	–	–	–	–	0.116	–	0.0929	0.105	0.112	0.1	0.108	0.109	0.0801	0.105	0.136	0.101	–
L99C	0.112	0.0957	–	0.0965	0.0854	0.0948	0.0941	–	0.114	0.121	0.109	0.0981	0.0913	–	–	–	0.0703	–	–
L99S	0.122	0.0719	0.144	–	0.0712	0.0787	–	–	–	–	0.115	0.11	0.0961	–	–	–	–	–	0.0828
K100N	0.0948	0.107	0.127	–	0.101	–	0.0951	0.102	0.129	0.188	0.143	–	–	–	–	0.0949	–	–	–
K100T	0.117	0.109	0.0978	–	0.0776	0.115	0.127	0.0982	0.103	–	0.115	–	0.106	0.12	0.14	–	–	–	–
K100W	0.122	0.0764	0.113	–	0.0689	0.0897	0.102	0.0898	0.106	–	0.128	–	0.1	–	–	0.0985	–	–	0.103
F101Q	0.0468	0.0493	–	–	–	0.0405	0.0505	–	–	0.0421	0.0577	0.0436	0.0546	0.0438	0.054	0.049	0.0478	–	–
E103K	0.098	0.0894	–	–	0.0811	0.0699	–	–	–	0.0804	0.0867	0.0904	0.0907	–	–	0.0907	0.0767	0.0721	0.101
P104Y	0.0546	0.0557	0.055	0.0617	0.0545	0.0452	0.0359	0.0508	0.0704	0.0622	0.0525	0.0491	0.0507	–	0.0549	–	0.0522	0.0451	0.0545
Q105K	0.0609	0.102	0.134	0.118	0.117	0.102	0.111	0.109	0.116	0.133	0.113	0.105	0.124	0.125	0.102	0.0862	0.128	0.117	–
Q105N	0.128	0.116	0.157	0.111	0.102	0.124	0.103	0.0748	0.118	0.132	0.0914	0.0909	0.116	–	0.0935	0.0906	0.12	0.114	0.0954
Q105T	0.125	0.105	–	0.0981	–	–	–	0.0937	–	–	0.0873	–	0.0787	–	0.0915	0.0789	0.121	–	–
